Source: PubChem BioAssay AID624418 (National Center for Advancing Translational Sciences (NCATS), 2012)
In all, about 410,000 compounds went through this assay and about 530 (0.13%) were called active. The inconclusive results got no clear call from the source; some entries with a clear call stand among them for comparison. The call rests on the fitted dose curve; in most records, active means well fitted inhibition curve with a large enough effect; inconclusive means small, poorly fitted or top-dose-only effect, or another doubt; inactive means no such curve, though single readings can be large or run the other way. A potency beside an inconclusive call is a rough fit, not a confirmed value.

Test: qHTS of GLP-1 Receptor Inverse Agonists: Cytotox Screen
Details: HEK293 cAMP-luciferase reporter cells, luminescence, 24 h; activity change, negative = inhibition: at 38.3 µM (top of the series) unless noted
Method in brief: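 Luminescence readout: signal drop marks cytotoxicity. Plated cells grew 12 h at 37 °C, 5% CO2, received 23 nL compound for 24 h, then got luciferase reagent, read after 12 min at RT.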
On the % scale 0 is the no-effect control and ±100 the full control effect; potency means the concentration at half of the fitted maximal effect.

Row | Structure (SMILES) | Potency | activity change, negative = inhibition
1 | CCCn1c2ccccc2c2cnn(CC(=O)NCCCN(Cc3ccccc3)C(C)C)c(=O)c21 | inconclusive: 28.2 µM [inhibitor, single point] | –
2 | COc1ccc(Nc2cc(C(=O)NCCCN(C)C3CCCCC3)c3ccccc3n2)c(OC)c1 | inconclusive: 28.2 µM [inhibitor, single point] | –
3 | COc1cccc(C(C(=O)Nc2ccc(F)cc2)N(C(=O)Cn2nnc3ccccc32)C2CC2)c1 (configuration not stated) | inconclusive: 11.2 µM [inhibitor, partial curve] | –
4 | Cc1ccc(/C=N/NC(=O)c2csc3c2CCCC3)cc1 | inconclusive: 1 µM [inhibitor, full curve, poor fit] | –
5 | CCOc1ccc(C(=O)NC(=S)Nc2cccc(S(=O)(=O)NC3=NCCC3)c2)cc1 | inconclusive: 2.82 µM [inhibitor, full curve, poor fit] | –
6 | COc1ccc(C=O)cc1Cn1ccnc1 | – | inactive: 4.23%
7 | CC1=NN(C(=O)c2c(Br)cnn2C)C(O)(C(F)(F)F)C1 (configuration not stated) | inconclusive: 17.8 µM [inhibitor, partial curve, poor fit] | –
8 | Cc1cc2nc(-c3ccc(SCC(=O)Nc4ccc(S(=O)(=O)NC5CC5)cc4)nc3)[nH]c2cc1C | inconclusive: 22.4 µM [inhibitor, single point] | –
9 | COc1ccccc1C(=O)Nc1ccnn1C1CCN(C/C=C/c2ccc(F)cc2)CC1 | inconclusive: 14.1 µM [inhibitor, partial curve, poor fit] | –
10 | O=C1C=CC(=O)N1c1cccc(-c2ccccc2)c1 | active: 12.6 µM | –
11 | Cc1ccc(C(=O)N2CCN3C(=O)c4ccccc4C23c2ccc(Cl)cc2)cc1 (configuration not stated) | inconclusive: 10 µM [inhibitor, partial curve, poor fit] | –
12 | Cc1ccccc1NC(=S)NCc1ccc2c(c1)cc(C)n2C | inconclusive: 28.2 µM [inhibitor, single point] | –
13 | COCCCNC(=S)Nc1ccc(N2CCCCC2)cc1 | inconclusive: 28.2 µM [inhibitor, single point] | –
14 | CCCc1cc(-c2n[nH]c(=S)n2CC)cs1 | inconclusive: 15.8 µM [inhibitor, single point] | –
15 | Cc1ccc2c(c1)sc(-c1ccc(N(C)C)cc1)[n+]2C | inconclusive: 11.2 µM [inhibitor, single point] | –
16 | NS(=O)(=O)c1ccc(N/N=C/c2ccc(C(=O)O)cc2)c([N+](=O)[O-])c1 | inconclusive: 6.31 µM [inhibitor, partial curve, poor fit] | –
17 | O=C(Nc1ccc(Cl)cc1C(F)(F)F)C(Sc1nnc(-c2cccs2)o1)c1ccccc1 (configuration not stated) | inconclusive: 28.2 µM [inhibitor, single point] | –
